Measurements: PubChem BioAssay AID1963856 (Molecular Pharmacology Branch, DTP, NCI, 2024)
For part of its entries the source gives two or more results. Only these are listed. The source may hold further records. Values given together are repeated measurements (runs, samples, wells, individuals or studies). Signs of the kind (2×) give the number of equal values in this list.

Test system: LG0567-F671-PDC KRAS tumor spheroid viability
Experiment: Anticancer human tumor LG0567-F671-PDC patient-derived lung adenocarcinoma cell line growth inhibition [KRAS2]
Details: spheroids with HUVEC and MSC; for viability, T/C: stronger effect = lower value; for IC50: compound alone
Description: Multicellular complex tumor spheroid response to RAS pathway inhibitors in combination with a targeted agents in patient-derived cell lines with oncogenic KRAS variants from multiple cancer types
A high-throughput screen of multi-cell type tumor spheroids was designed to identify active combinations of targeted small molecules and KRAS pathway inhibitors. Complex spheroids include a stromal component modeled by human endothelial cells (HUVEC) and fibroblasts modeled by human mesenchymal stem cells (MSCs). The concentration ranges selected for each drug and investigational agent were based upon clinically achievable concentrations if the clinical Cmax of the agent was known.
Compounds. The drugs and investigational agents: BI-3406 (NSC825286), BAY-293 (NSC824723), batoprotafib (TNO155; NSC825523), sotorasib (AMG 510; NSC818433), MRTX1257 (NSC819558), elimusertib (BAY 1895344; NSC800525), molibresib (GSK525762; NSC774829), temuterkib (LY3214996; NSC803410), venetoclax (NSC766270), alisertib (NSC759677), olaparib (NSC753686), talazoparib (NSC767125), erdafitinib (NSC781556), ipatasertib (NSC767898), cabozantinib (NSC761068), nintedanib (NSC756659), abemaciclib (NSC768073), docetaxel (NSC628503), trametinib (NSC758246), and sapanisertib (NSC764658) were obtained from the National Cancer Institute (NCI) Developmental Therapeutics Program Chemical Repository. The FDA-approved anticancer drug set is available from the Developmental Therapeutics Program. […] The stock solutions were prepared in dimethyl sulfoxide (DMSO, Sigma-Aldrich, St. Louis, MO, cat. D2650) at 800-fold the tested concentration and stored at -70 degrees C prior to their use. All drugs and investigational agents were tested over a range starting from a high concentration at or near the clinical Cmax and decreasing in half-log increments. If the clinical Cmax for an agent had not been determined, the highest concentration tested was 10 microM.
Cell Culture. All cells were maintained in an incubator at 37 degrees C and 5% CO2 with 95% humidity. The PDC lines were cultured according to standard operating procedures established by the NCI PDMR (https://pdmr.cancer.gov/sops/default.htm). Briefly, all PDCs were thawed and cultured in Matrigel-coated flasks prepared with a working solution of 1X Ham's F-12 nutrient mix, without supplementation (Invitrogen, Waltham, MA, cat. 11765054), 100 U/mL penicillin-streptomycin (Invitrogen, cat. 15140122), and 2.5% Matrigel (Corning Inc., Corning, NY, cat. 354248) for the first three passages. All PDCs were cultured in complete DMEM/F-12 media containing advanced DMEM/F-12 (Invitrogen, cat. 12634028), 4.9% defined fetal bovine serum, heat inactivated (HyClone Laboratories Inc., Logan, UT, cat. SH30070.03HI), 389 ng/mL hydrocortisone (Sigma-Aldrich, cat. H4001), 9.7 ng/mL human EGF recombinant protein (Invitrogen, cat. PHG0313), 23.4 microg/mL adenine (Sigma-Aldrich, cat. A2786), 97.3 U/mL penicillin-streptomycin (Invitrogen, cat. 15140122), 1.9 mM L-glutamine (Invitrogen, cat. 25030081), and 9.7 microM Y-27632 dihydrochloride (Tocris Bioscience, Bristol, United Kingdom, cat. 1254). The PDCs were cultured in complete DMEM/F12 media without 9.7 microM Y-27632 dihydrochloride for at least two passages prior to the screen. The established cell line HOP-62 was cultured in RPMI 1640 medium, HEPES (Invitrogen, cat. 22400105) with 10% defined fetal bovine serum (HyClone Laboratories Inc., cat. SH30070.03) and 2 mM L-glutamine (Invitrogen, cat. 25030081). The pooled donor HUVEC were cultured in endothelial cell growth medium 2 (PromoCell, Heidelberg, Germany, cat. C-22011) and the hMSC were cultured in mesenchymal stem cell growth medium 2 (PromoCell, cat. C-28009). For all experiments, HUVEC and hMSC were used at passages </=5, while the malignant cell lines were used at passages </=15. […]
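Note: drug exposure lasted seven days after spheroids formed for three days.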
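Throughout, for viability, T/C: 100% = DMSO vehicle control viability.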

| IC50 | SMILES | viability, T/C (compound alone 0.1 µM) | viability, T/C (compound alone 1 µM) | viability, T/C (compound alone 3.16 µM) | also measured |
| --- | --- | --- | --- | --- | --- |
| > 3.16 µM and 256 nM | CC1COCCN1c1cc(-c2ccnn2C)c2ccnc(-c3ccn[nH]3)c2n1 (centres undefined) | 80, 78.5, 76.1, 53, 73.7% | 63, 69.5, 68.4, 40.5, 66.9% | 60.5, 65.8, 63.6, 16.9, 68.3% | viability, T/C (compound alone 0.0316 µM): 94.2, 95.5, 97.8, 62.4, 82.2% |
| – | COc1cc2nccc(Oc3ccc(NC(=O)C4(C(=O)Nc5ccc(F)cc5)CC4)cc3)c2cc1OC | – | – | 45.3, 44.5, 48.9, 132, 49.5% | viability, T/C (compound alone 10 µM): 95.5, 94.8, 95.8, 135, 110% |
| – | CN(C)C/C=C/C(=O)Nc1cc2c(Nc3ccc(F)c(Cl)c3)ncnc2cc1O[C@H]1CCOC1 | – | – | – | viability, T/C (compound alone 0.00316 µM): 64, 72.9, 81.6, 81.5, 92.2% |
| – | CNCc1ccccc1-c1csc(C(C)Nc2nc(C)nc3cc(OC)c(OC)cc23)c1 (centres undefined) | 83.3, 78.7, 71.7, 70.9, 85.9, 84.5, 74.3, 61, 82.1, 86.8, 76, 77.4, 73.2, 83.6 (2×), 84, 81.9% | 86.8, 76, 74.4, 57.2, 81.5, 60.7, 53.2, 61.9, 66.5, 59.5, 69.6, 57, 65.9 (2×), 71.8, 78.2, 68.5% | 66.9, 65.1, 74.1, 2.28, 3.94, 6.72, 0.26, 0.18, 0.54, 71.7, 72.8, 103, 56.4, 92.2, 99.9% | viability, T/C (compound alone 0.316 µM): 61.5, 65.7, 58.8, 51.7, 85.6, 67, 65.9, 66.5, 72.2, 64, 64.7, 69.2, 72.3, 81.2, 79.7 (2×), 75%; IC50 (run of 07/12/2021): 4.25, 4.14, 4.4, 1.16, 1.6, 1.24 µM |
| – | COC(=O)c1ccc2c(C(=Nc3ccc(N(C)C(=O)CN4CCN(C)CC4)cc3)c3ccccc3)c(O)[nH]c2c1 | – | – | – | viability, T/C (compound alone 0.0316 µM): 117, 96.6, 89.4, 93.2, 120%; viability, T/C (compound alone 0.316 µM): 78.8, 68.2, 97, 83.9, 79.7% |
| – | COc1cc2nc(C)nc(NC(C)c3cc(N)cc(C(F)(F)F)c3)c2cc1OC1CCOC1 (centres undefined) | 82.7, 95.3, 85.2, 96.3, 81.5, 70.6, 70, 66.9, 76.3, 77.7, 81.1, 73.9, 83.3, 69.9, 70.2, 81.2, 77.6% | 91.9, 89, 91.8, 69.6, 65.4, 60.2, 59.4, 57.3, 65.6, 71.1, 73.9, 60, 80.4, 74.1, 81.6, 69.9, 73.3% | 68.5, 41.5, 66.9, 77.1, 58.2, 46.4, 69.4, 59.7, 79.7, 80.2, 80.4, 54.5, 77.4 (2×), 81.5, 56.5, 74.9% | viability, T/C (compound alone 10 µM): 74.7, 44.7, 93.9, 84.6, 53.1, 42.5, 62.4, 54.4, 84, 66.4, 72.1, 57.4, 77, 80.2, 63.7, 84.3, 76% |
| – | CC1OCC2(CCN(c3cnc(Sc4ccnc(N)c4Cl)c(N)n3)CC2)C1N (centres undefined) | – | 106, 28.8, 29.9, 25.9, 25.4, 27.5, 28.6, 33.9, 31.3, 35.9, 31.8, 30.6, 27.4, 30.3, 29.7, 28.4, 30.5, 37.6% | – | IC50 (run of 07/12/2021): 137 nM, 1.6 µM, 130 nM, 152 nM, 222 nM, 160 nM; IC50 (run of 07/19/2021): < 100 nM, 112 nM, 150 nM, 110 nM |
| 6.04 µM, 9.45 µM, 9.09 µM, > 10 µM | COc1cc(Nc2ncc3c(n2)-c2ccc(Cl)cc2C(c2c(F)cccc2OC)=NC3)ccc1C(=O)O | 66.8, 90.3, 80, 85.2, 92.7% | 59.9, 88, 77.6, 82.5, 80.2% | – | – |
| – | C=CC(=O)N1CCN(c2nc(OCC3CCCN3C)nc3c2CCN(c2cccc4cccc(C)c24)C3)CC1CC#N (centres undefined) | – | – | 24.6, 28.8, 33.6, 35, 32, 5.63, 17.2, 15.5, 10.2, 23.7, 34.8, 32.8, 31, 33.2, 36.3, 39.6% | viability, T/C (compound alone 0.316 µM): 33.6, 36.4, 23.2, 23.6, 31.8, 32.2, 23.1, 38.3, 42.3, 42.1, 36.7, 26, 88.7, 21.3, 27.7, 31.4, 25.1% |
| 10 nM and > 3.16 µM | CC(=O)OC12COC1CC(O)C1(C)C(=O)C(O)C3=C(C)C(OC(=O)C(O)C(NC(=O)OC(C)(C)C)c4ccccc4)CC(O)(C(OC(=O)c4ccccc4)C21)C3(C)C (centres undefined) | – | – | – | – |
| 9.19 µM, 7.88 µM, > 10 µM, 605 nM | COc1cc(OC)cc(N(CCNC(C)C)c2ccc3ncc(-c4cnn(C)c4)nc3c2)c1 | 89.4, 94.9, 82.5, 109, 90.6% | 91.5, 93.1, 94.6, 18.9, 87.5% | 67.8, 83, 75.7, 25.2, 75.3% | viability, T/C (compound alone 0.0316 µM): 93.9, 92.8, 87, 111, 85.7%; viability, T/C (compound alone 10 µM): 48.6, 41.2, 54.2, 0.14, 52.1% |
| – | CC(C)NCC(C(=O)N1CCN(c2ncnc3c2C(C)CC3O)CC1)c1ccc(Cl)cc1 (centres undefined) | – | – | 78, 85.4, 83.7, 20.2, 80.7% | – |
| > 100 nM and 5.66 nM | CC(C)n1nc(-c2ccc3oc(N)nc3c2)c2c(N)ncnc21 | 53.7, 61.3, 60.6, 66.5, 33.6% | – | – | viability, T/C (compound alone 0.00316 µM): 67.3, 82.4 (2×), 85.5, 54.8%; viability, T/C (compound alone 0.01 µM): 62.3, 80.3, 76.6, 82.5, 49.3%; viability, T/C (compound alone 0.0316 µM): 55.6, 63.1, 71.4, 71.1, 39.6% |

| SMILES | IC50 | viability, T/C (compound alone 0.1 µM) | viability, T/C (compound alone 1 µM) | viability, T/C (compound alone 3.16 µM) | also measured |
| --- | --- | --- | --- | --- | --- |
| CCNC(=O)CC1N=C(c2ccc(Cl)cc2)c2cc(OC)ccc2-n2c(C)nnc21 (centres undefined) | 9.42 µM, 6.15 µM, 5.46 µM, 551 nM, 2.06 µM | – | 64.8, 70.6, 63.8, 20.1, 53.2% | 52.9, 51.3, 54.9, 14.1, 50.2% | viability, T/C (compound alone 10 µM): 46.9, 48, 45.3, 4.55, 39.8% |
